According to a compilation of properties of binary mixtures (doi:10.1016/j.jct.2022.106909):
Some of these densities may be calculated back from excess volumes.

Assay: xn = mol fraction of the nth substance listed
Conditions: 100 kPa

CCC(=O)[O-].C[n+]1ccn(CCO)c1 + O
mass density [kg/m3]
Conditions	288.15 K	293.15 K	298.15 K	303.15 K	308.15 K	313.15 K	318.15 K	323.15 K	328.15 K	333.15 K
x1 = 0.7595	1163	1160	–	1153	1150	1147	1144	1140	1137	1134
x1 = 0.8082	1164	1161	1158	1154	1151	1148	1145	–	–	1135
x1 = 0.842	1165	1162	–	1156	1152	1149	–	1143	1140	1136
x1 = 0.8991	1166	1163	1160	1157	–	1150	1147	–	1141	–
x1 = 0.9102	1167	1163	1160	1157	1154	1151	1148	1144	–	1138

CC(=O)[O-].Cn1cc[n+](CCO)c1 + O
mass density [kg/m3]
Conditions	288.15 K	293.15 K	298.15 K	303.15 K	308.15 K	313.15 K	318.15 K	323.15 K	328.15 K	333.15 K
x1 = 0.8317	1163.6	1160.5	–	–	–	1147.7	1144.5	1141.3	1138	1134.8
x1 = 0.8632	1167.5	1164.4	1161.2	1158	1154.8	–	1148.4	1145.1	1141.8	1138.5
x1 = 0.8712	1168.7	1165.5	–	–	1156	–	1149.6	1146.3	–	1139.8
x1 = 0.8818	1170.2	1167	1163.9	1160.7	–	–	1151.1	–	1144.6	–
x1 = 0.9003	1172.2	–	1166	1162.7	1159.5	1156.3	1153.1	1150	1146.6	–
